According to patent US20170029494A1, “Antigen Binding Constructs” (Glaxo Group Limited, priority 2011, published 2017):

Experiments:
[1] = molecular target: T1, VEGF165 (Homo sapiens, UniProt P15692); assay: Isothermal titration calorimetry (ITC); conditions: 25° C.; 1:1 binding model; Table 10
T1 sequence (P15692 27-191 isoform P15692-4): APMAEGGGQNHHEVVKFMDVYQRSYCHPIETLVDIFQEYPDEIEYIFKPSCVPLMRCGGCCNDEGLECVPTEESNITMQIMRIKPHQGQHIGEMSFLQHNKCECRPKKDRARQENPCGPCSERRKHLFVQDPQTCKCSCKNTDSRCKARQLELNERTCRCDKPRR

[2] = molecular target: T1, VEGF165; assay: Modified MSD assay: binding to VEGF pre-saturated with the other dAb format; parameters: made in house; host or cells: HEK293 (transient transfection); conditions: DMS1576 ≧3 μg/mL; anti-Vk detection; FIG. 2B
Protocol: A MSD high bind 96 well plate (MSD L11X6-3) was coated with 3 μg/mL rhVEG F165 (sourced ‘in house’ from transient transfection of HEK293 cells) in PBS (25 μl/well), covered with a plate sealer and incubated overnight at 4° C. The next day the MSD plate was washed 3×300 μl/well with Tris wash buffer and blotted over a pad of tissue to remove excess wash buffer from the wells. The MSD plate was then blocked with 3% BSA in PBS (250 μl/well) and incubated shaking (750 RPM) at room temperature for 1 hour. […] The MSD plate was washed again before the addition of DMS1576 (25 μl/well, 0-100 ng/ml) and incubated shaking (750 RPM) at room temperature for 1 hour. […] Prior to measurement of the electrochemiluminescence in a MSD Sector Imager 6000, the MSD plate was washed and 150 μL/well of 2× Read Buffer T (MSD R92TC-1) was added.
The next day the MSD plate was washed 3×300 μl/well with Tris wash buffer and blotted over a pad of tissue to remove excess wash buffer from the wells. […] Prior to measurement of the electrochemiluminescence in a MSD Sector Imager 6000, the MSD plate was washed and 150 μL/well of 2× Read Buffer T (MSD R92TC-1) was added.

[3] = system: VEGF165-induced proliferation of human umbilical vein endothelial cells (HUVEC); assay: Human Umbilical Cord Endothelial Cell (HUVEC) proliferation assay; format: cell-based; conditions: Example 27; whole 96 well plate; words only
[4] = molecular target: T1, VEGF165; assay: Biacore T100 SPR, Protein A capture, 37° C.; format: binding; parameters: made in house; host or cells: HEK293 (transient transfection)
Protocol: (§1) The run was carried out at 37° C., using HBS-EP as the running buffer.
as §1, §1, §1, §1

[5] = Table 5, 1:1 model, VEGF165 64 nM to […]
[6] = Table 7, 1:1 Binding, VEGF165 75, 15, 3, 0.6 nM
[7] = Table 11A, VEGF165 16 nM to […]
[8] = Table 12A, VEGF165 32 nM to 0.03125 nM

B1: DMS30000: C-terminal Fc fusion of K-044-085 dAb (GS(TVAAPSGS)x3 Linker) Fc-dAb; SEQ ID NO:3 & 31 (protein)
chain: [human IgG1 Fc and a few adjoining residues not shown]GSTVAAPSGSTVAAPSGSTVAAPSGSDIQMTQSPSSLSASVGDRVTITCRASQWIGPELKWYQQKPGKAPKLLIYHGSILQSGVPSRFSGSGSGTDFTLTISSLQPEDFATYYCQQYMYYPHTFGQGTKVEIKR
modifications: C-terminal Fc fusion of K-044-085 DAB (GS(TVAAPSGS)x3 Linker) Fc-dAb nucleic acid sequence identified using molecular biology techniques.
- KA M^−1 [1]: 8e+07 M⁻¹
- ΔH [1]: -19500 cal/mol
- ΔS (cal/mol/deg) [1]: −29.3 cal/mol/deg
- binding to VEGF165 pre-saturated with Vh dAb-Fc DMS1576 [2]: bind VEGF165
- EC50 compared to Bevacizumab (Avastin) [3]: similar
- Kd [4, 5]: 2 pM
- ka [4, 5]: 1.44E+07
- kd [4, 5]: 3.34E−05
- ka [4, 6]: 2.28E+07
- kd [4, 6]: 1.60E−05
- Ka (M − 1 · s − 1) [4, 7]: 8.96E+06 M − 1 · s − 1
- Kd (s − 1) [4, 7]: Too tight
- Ka [4, 8]: 1.31e+07 M⁻¹ s⁻¹
- Kd [4, 8]: 1.74 pM
- Kd (s − 1) [4, 8]: 2.29e-05 s⁻¹
